Data as given in the RNAGym collection of RNA variant scans (doi:10.1073/pnas.2313332121).
This sample is rich in variants without activity.

B1: TPR 5TU (parent)
chain: GGAUCUUCUCGAUCUAACAAAAAAGACAAAUCUGCCACAAAGCUUGAGAGCAUCUUCGGAUGCAGAGGCGGCAGCCUUCGGUGGCGCGAUAGCGCCAACGUUCUCAACUAUGACACGCAAAACGCGUGCUCCGUUGAAUGGAGUUUAUCAUG

Variants of: B1
Experiment: polymerase ribozyme fitness, log enrichment relative to wild type (log ratio); higher = more active; in vitro selection for triplet polymerase activity
In short: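 Mutant libraries were PCR-built and transcribed for each subunit of a heterodimeric triplet polymerase ribozyme and selected for one round in triplicate at −7 °C, frozen, before gel excision of extended constructs and streptavidin-bead capture. Input and output libraries were Illumina-sequenced, keeping genotypes with ≥10 input reads and ≥1 read per output. Fitness is a logarithmic ratio of genotype to wild-type enrichment, in base 2, using inverse-variance-weighted replicate averages.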

Variant	polymerase ribozyme fitness (log ratio)
GGAUCUUCUCGAUCUAACAAAAAAGACAAAUCUGCCACAAAGCUUGAGAGCAUCUUCGGAUGCAGAGGCGGCAGCCUUCGGUGGCGCGAUAGCACCAACGUUCUCAACUAUGACACGCAAAACGCGUGCUCCGUUGAAUGAAGUUUAUCAUG [G94A G141A]	0.172
GGAUCUUCUCGAUCUAACAAAAAAGACAAAUCUGCCACAAAGCUUGAGAGCAUCUUCGGAUGCAGAGGCGGCAGCCUUCGGUGGCGCGAUAGCACCAACGUUCUCAACUAUGACACGCAAAACGCGUGCUCCGUUGAAUGCAGUUUAUCAUG [G94A G141C]	-2.23
GGAUCUUCUCGAUCUAACAAAAAAGACAAAUCUGCCACAAAGCUUGAGAGCAUCUUCGGAUGCAGAGGCGGCAGCCUUCGGUGGCGCGAUAGCCCCAACGUUCUCAACUAUGACACGCAAAACGCGUGCUCCGUUGAAUGGCGUUUAUCAUG [G94C A142C]	-1.37
GGAUCUUCUCGAUCUAACAAAAAAGACAAAUCUGCCACAAAGCUUGAGAGCAUCUUCGGAUGCAGAGGCGGCAGCCUUCGGUGGCGCGAUAGCACCAACGUUCUCAACUAUGACACGCAAAACGCGUGCUCCGUUGAACGGAGUUUAUCAUG [G94A U139C]	-3.82
GGAUCUUCUCGAUCUAACAAAAAAGACAAAUCUGCCACAAAGCUUGAGAGCAUCUUCGGAUGCAGAGGCGGCAGCCUUCGGUGGCGCGAUAGCGUCAACGUUCUCAACUAUGACACGCAAAACGCGUGCUCCGUUGAAUGGAGUUUUUCAUG [C95U A147U]	0.673
GGAUCUUCUCGAUCUAACAAAAAAGACAAAUCUGCCACAAAGCUUGAGAGCAUCUUCGGAUGCAGAGGCGGCAGCCUUCGGUGGCGCGAUAGCCCCAACGUUCUCAAUUAUGACACGCAAAACGCGUGCUCCGUUGAAUGGAGUUUAUCAUG [G94C C108U]	≤ -4.2
GGAUCUUCUCGAUCUAACAAAAAAGACAAAUCUGCCACAAAGCUUGAGAGCAUCUUCGGAUGCAGAGGCGGCAGCCUUCGGUGGCGCGAUAGCGUCAACGUCCUCAACUAUGACACGCAAAACGUGUGCUCCGUUGAAUGGAGUAUAUUAUG [C95U U102C C125U U145A C149U]	≤ -4.2
GGAUCUUCUCGAUCUAACAAAAAAGACAAAUCUGCCACAAAGCUUGAGAGCAUCUUCGGAUGCAGAGGCGGCAGCCUUCGGUGGCGCGAUAGCGUGAACGUUCUCAACUAUGACACGCAAAACGCGUGCUCCGUGGAAUGGAGGUUCUCAUG [C95U C96G U135G U144G A147C]	-4.2
GGAUCUUCUCGAUCUAACAAAAAAGACAAAUCUGCCACAAAGCUUGAGAGCAUCUUCGGAUGCAGAGGCGGCAGCCUUCGGUGGCGCGAUAGCACCAACGUUCUCAACUAUGACACGCAAAACGCGUGCUCCUUUGAAUGGAGUUUAUCAUG [G94A G133U]	-3.19
GGAUCUUCUCGAUCUAACAAAAAAGACAAAUCUGCCACAAAGCUUGAGAGCAUCUUCGGAUGCAGAGGCGGCAGCCUUCGGUGGCGCGAUAGCUCCAACGUUCUCAAAUAUGACACGCAAAACGCGUGCUCCGUUGAAUGGAGUUUAUCAUG [G94U C108A]	≤ -4.2
GGAUCUUCUCGAUCUAACAAAAAAGACAAAUCUGCCACAAAGCUUGAGAGCAUCUUCGGAUGCAGAGGCGGCAGCCUUCGGUGGCGCGAUAGCGACAGCGUUCUCAACUAUGACACGCAAAACGCGUGCUCCGUUGAAUGGAGUUUAUCAUG [C95A A98G]	0.372
GGAUCUUCUCGAUCUAACAAAAAAGACAAAUCUGCCACAAAGCUUGAGAGCAUCUUCGGAUGCAGAGGCGGCAGCCUUCGGUGGCGCGAUAGCUCUAACGUUCUCAACUAUGACACGCAAAACGCGUGCUCCGUUGAAUGGAGUUUAUCAUG [G94U C96U]	-0.719
GGAUCUUCUCGAUCUAACAAAAAAGACAAAUCUGCCACAAAGCUUGAGAGCAUCUUCGGAUGCAGAGGCGGCAGCCUUCGGUGGCGCGAUAGCGUAAAUGUUCUCAAUUAUGACACGCAAAACGCGUGCUCCGUUGAAUGGAGUUUAUCAUG [C95U C96A C99U C108U]	-4.11
GGAUCUUCUCGAUCUAACAAAAAAGACAAAUCUGCCACAAAGCUUGAGAGCAUCUUCGGAUGCAGAGGCGGCAGCCUUCGGUGGCGCGAUAGCGCAAACGUUCUCAACUAUGACACGCAUAACGCGUGCUCCGUUGAAUUGAGUUUAUCAUG [C96A A120U G140U]	-3.09
GGAUCUUCUCGAUCUAACAAAAAAGACAAAUCUGCCACAAAGCUUGAGAGCAUCUUCGGAUGCAGAGGCGGCAGCCUUCGGUGGCGCGAUAGCACUAAGGUUCUCAACUAUGACACGCAAAACGCGUGCUCCGUUGAAUGGAGGUUAUCAUG [G94A C96U C99G U144G]	≤ -4.2
GGAUCUUCUCGAUCUAACAAAAAAGACAAAUCUGCCACAAAGCUUGAGAGCAUCUUCGGAUGCAGAGGCGGCAGCCUUCGGUGGCGCGAUAGCGACAACGUUCUCAACUAUGACACGCAAAACGCGUGCUCCGUUGAAUAGAGUUUAUCAUG [C95A G140A]	-2.71
GGAUCUUCUCGAUCUAACAAAAAAGACAAAUCUGCCACAAAGCUUGAGAGCAUCUUCGGAUGCAGAGGCGGCAGCCUUCGGUGGCGCGAUAGUGCCAACGUUCUCAACUAUGACACGCAAAACGCGUGCUCCGUUGAACGGAGUUUAUCAUG [C93U U139C]	≤ -4.2
GGAUCUUCUCGAUCUAACAAAAAAGACAAAUCUGCCACAAAGCUUGAGAGCAUCUUCGGAUGCAGAGGCGGCAGCCUUCGGUGGCGCGAUAGCCCCUACGUUCUCAACUAUGACACGCAAAACGCGUGCUCCGUUGAAUGGAGUUUAUCAUG [G94C A97U]	-2.45
GGAUCUUCUCGAUCUAACAAAAAAGACAAAUCUGCCACAAAGCUUGAGAGCAUCUUCGGAUGCAGAGGCGGCAGCCUUCGGUGGCGCGAUAGCUCCAACGGUCUCAACUAUGACACGCAUAACGCGUGCUCCGUUGAAUGGUGUUUAUCAUG [G94U U101G A120U A142U]	-2.08
